Laboratory results taken from ChEMBL document CHEMBL4888484, “Replenishing the malaria drug discovery pipeline: Screening and hit evaluation of the MMV Hit Generation Library 1 (HGL1) against asexual blood stage Plasmodium falciparum ,using a nano luciferase reporter read-out” (2022).
Values joined by “and” are separate entries in the source; they are usually repeats but may differ in a detail not shown here. Equal values may be shown once. In all, about 150,000 compounds went through this assay and about 540 (0.36%) showed an effect of 50% or more. The list shows a part of the results.

Test system: Plasmodium falciparum
Test: Primary screen in NF54 nanoGlo assay, in single point, at 2uM, 72h; a lower Z score goes with more inhibition
Type: functional, Erythrocyte
Conditions: timepoint 72 hour

Row | SMILES | % Inhibition [%] | Z score | % Inhibition (2 µM)
1 | Cc1ccc(-c2ccccc2CN2CCN(C(=O)c3nc[nH]n3)CC2)o1 | 3 | -0.59 | –
2 | Cc1cccc(C(=O)NCCn2nc(C3CC3)ccc2=O)c1 | 3 | -0.41 | –
3 | CCCCN(CCO)C(=O)Nc1ccnnc1C | 15 | -1.74 | –
4 | CCN(C(=O)CCN1CCC[C@@H](O)C1)c1ccccc1 | 6 | -1.03 | –
5 | CC(=O)N[C@@H]1CC[C@H]2CCOc3ccccc3C(=O)N3CCN(C4Cc5ccccc5C4)C[C@H]3C(=O)NC[C@H]1O2 | 1 | -0.18 | –
6 | Cc1nc(-c2cccc(F)c2)nc2c1CC(=O)N2CC(C)C | -2 | 0.26 | –
7 | CN1CCCN(c2ccc3ccccc3n2)CC1 | -12 | 1.53 | –
8 | c1cc(Cn2cccn2)cc(-c2nc(-c3cn4ccccc4n3)no2)c1 | -16 | 2.12 | –
9 | CCC(C)(C)NC(=O)CC[C@H]1CCCO1 | 0 | -0.02 | –
10 | CC(C)c1csc(-c2c(-c3ccccc3)ncn2[C@H]2CS(=O)(=O)C[C@@H]2O)n1 | -5 | 0.86 | –
11 | CCc1cnc(CN(C)Cc2[nH]c(C)nc2C)s1 | -4 | 0.54 | –
12 | COC[C@H]1[C@@H](NC(=O)c2ccc(-c3noc(C(C)C)n3)cc2)[C@H]2CCO[C@H]21 | -3 | 0.54 | –
13 | COc1ccc(CNC(=O)c2ccc3c(c2)CC(=O)N3C)cc1OC | -8 | 0.94 | –
14 | CCn1cc(-c2ccc(C(=O)N(C)C[C@H](O)c3ccccc3)cc2)c(C)n1 | 9 | -1.17 | –
15 | O=C(Nc1cncc(Br)c1O)[C@H](C1CC1)N1CCCC1 | -10 | 1.87 | –
16 | Cc1n[nH]cc1CNCCc1ccsc1 | 4 | -0.56 | –
17 | Cc1cc(C(=O)N2CCNC(=O)C[C@H]2c2ccccc2)nn1-c1ccc(F)cc1 | 13 | -1.54 | –
18 | COc1ccccc1CNC(=O)c1nn(-c2ccccc2OC)c(=O)c2ccccc12 | 8 | -0.91 | –
19 | O=S(=O)(Cc1ccccc1)N1CC(N2CC(F)(F)C[C@H]2CO)C1 | -12 | 1.34 | –
20 | O=C1C[C@H]2CC[C@@H](CN1)N2Cc1ccc(OCc2ccccc2)cc1 | -4 | 0.83 | –
21 | O=C(NCC#CCN1CCOCC1)Nc1ccccc1C(F)(F)F | -12 | 1.32 | –
22 | Cc1ccc(CNC(=O)CN2CC[C@H](C(=O)N(C)C)C2)s1 | -14 | 1.83 | –
23 | CC[C@H](NC(=O)c1n[nH]c2c1CN(C)CC2)c1ccc(S(C)(=O)=O)cc1 | -5 | 0.64 | –
24 | CNS(=O)(=O)c1ccc(N(C)[C@H]2C[C@@H](OC)C2)c(F)c1 | 3 | -0.52 | –
25 | O=C(Cn1cc(C2CC2)nn1)NCC1([C@H](O)c2ccccc2)CC1 | -13 | 1.89 | –
26 | O=C(CCn1cnc2cc(S(=O)(=O)N3CCCCC3)ccc21)N1CCN(c2ccccn2)CC1 | 4 | -0.46 | –
27 | Cc1cccc(OC(C)(C)c2nc([C@H]3CCOC3)no2)c1 | -7 | 1.33 | –

Row | SMILES | % Inhibition [%] | Z score | % Inhibition (2 µM)
28 | COc1cc2c(NC(C)=O)c3n(c2cc1OC)C[C@@](C)(C(=O)NC1CCCCCC1)N(CCC(C)C)C3=O | 22 | -2.78 | –
29 | COc1cc([C@H]2CC(O)=Nc3cccc4c3c2cn4Cc2ccccc2)ccc1OCC(N)=O | -14 | 2.14 | –
30 | O=C1CCN(Cc2ccoc2)CCN1CC1CCCCC1 | -15 | 1.72 | –
31 | OC1(CCNc2ccc(Cl)cn2)CCCC1 | -13 | 1.49 | –
32 | Cc1csc(CNC(=O)[C@H]2CC(=O)N(C)C2)n1 | -3 | 0.39 | –
33 | Cn1ccc2ccn(CCNS(=O)(=O)Cc3ccccc3)c(=O)c21 | 0 | 0 | –
34 | Cc1oc(C(C)C)cc1C(=O)N1CCNC[C@H]1C(=O)NC1CC1 | 15 | -1.98 | –
35 | COc1ccc(CCNC(=O)CC[C@@H](C)[C@H]2CC[C@H]3[C@@H]4CC[C@@H]5C[C@H](O)CC[C@]5(C)[C@H]4C[C@H](O)[C@]23C)cc1 | -1 | 0.17 | –
36 | Cc1ccc(S(=O)(=O)CCN2C(=O)c3ccccc3C2=O)cc1 | -8 | 0.95 | –
37 | Cc1nsc(NC(=O)N2CCCCC23CC3)n1 | -5 | 0.96 | –
38 | CNC(=O)[C@@H]1CN(Cc2cccc3[nH]ccc23)CCO1 | 25 | -2.81 | –
39 | N[C@H]1CCN(c2ccc(Oc3ccccc3)cc2)C1 | – | – | -14% and -2%
40 | Cc1c(C#N)nn(-c2ccccc2)c1NC(=O)COC[C@H]1CCCO1 | -1 | 0.1 | –
41 | COc1ccc(OCCN2CC(n3cccn3)C2)cc1 | -11 | 1.22 | –
42 | Cc1nsc2ncc(C(=O)N3CCCCC3)c(N3CCC(C(=O)Nc4ccc(OC(F)(F)F)cc4)CC3)c12 | 13 | -2.16 | –
43 | CCCCn1nccc1NC(=O)N[C@@H](C)C1CCOCC1 | 3 | -0.52 | –
44 | CCOc1ccc(CN2C[C@@H]3CC[C@H]2CN(Cc2cscn2)C3)cc1 | -3 | 0.53 | –
45 | CCOC[C@@]12CCN(C(C)=O)C[C@@H]1CN(S(=O)(=O)c1cc(F)cc(F)c1)C2 | -5 | 1 | –
46 | C[C@H]1CCCN(C(=O)c2c(NC(=O)c3cccnc3)sc3c2CCCC3)CC1 | -8 | 1.05 | –
47 | Cc1cc2ncc3c(n2n1)CCN(C(=O)Nc1ccccc1F)C3 | -2 | 0.25 | –
48 | CCCCCOCC(=O)N1CC2(CCOC(=O)N2)C1 | 8 | -1.51 | –
49 | O=C(CN1CCN(c2ccccc2)C1=O)N1CC[C@H](Oc2cnccn2)C1 | -2 | 0.28 | –
50 | O=c1sc(-c2ccccc2)cn1Cc1nccn1C(F)F | -11 | 1.28 | –
51 | CS(=O)(=O)Nc1nc(CCN2C(=O)c3ccccc3C2=O)cs1 | -9 | 1.21 | –
52 | Cn1cnc2cc(C(=O)N3CCc4ccncc43)ccc21 | -12 | 2.36 | –
53 | N#C[C@@H](NC(=O)CC(F)(F)F)c1ccc(F)cc1F | -11 | 1.1 | –
